Out of some 340,000 compounds screened, about 12,000 (3.5%) were called active. The inconclusive results got no clear call from the source; some entries with a clear call stand among them for comparison. Calls come from the whole dose curve; as a rule, active = well fitted inhibition curve with a large enough effect; inconclusive = small, poorly fitted or top-dose-only effect, or another doubt; inactive = no such curve, though single readings can be large or run the other way. No potency is given beside an inconclusive call; the fits are too rough.
Assay: qHTS Assay for Inhibitors of Hepatitis C Virus (HCV)
Details: Huh7.5.1 HCVcc-Cre (HCVcc is cell-culture hepatitis C virus) infection, luciferase reporter, 44 h; activity change, negative = inhibition: at 41.8 µM (top of the series) unless noted
Procedure, shortened: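 Infectious HCV cell culture screen: compound-treated cells (1,000/well, pre-plated 4 h) are infected with HCVcc-Cre at roughly 0.5 moi and grown 44 h. Infection is quantified by luciferase signal after 15 min substrate incubation at room temperature.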
% is set by controls: 0 for no effect and ±100 for the full control effect; potency is the fitted concentration of half-maximal effect; tags give direction and shape of the fitted curve.

Compound | activity change, negative = inhibition | Potency
COc1ccccc1CN(C)C(=O)c1cc(C)nc2ccccc12 | inactive: 1.28% | 
COc1ccc(NC(=O)C(=O)N/N=C\c2ccc(CNC(=O)C(=O)Nc3ccc(C)c(C)c3)o2)c(OC)c1 |  | inconclusive [inhibitor, single point]
Cc1ccc(S(=O)(=O)N2CCN(c3nc4ccccc4nc3-n3nc(C)cc3C)CC2)cc1 |  | inconclusive [inhibitor, partial curve]
O=C(NCc1ccc2[nH]c3c(c2c1)CCCC3)c1ccc(S(=O)(=O)N2CCCC2)cc1 |  | inconclusive [inhibitor, partial curve]
CCN(C(=S)Nc1ccc(OC(F)F)cc1)C1CCCCC1 |  | inconclusive [inhibitor, single point]
COc1ccc(-c2nc(CN(C)C(C)c3ccon3)c(C)o2)c(C)c1C (stereo not given) |  | active: 10 µM
COC(=O)CSc1nc2c(c(C3CC=CCC3)c1C#N)CCC2 (stereo not given) |  | inconclusive [inhibitor, single point]
COc1ccc(CCNc2ncnc3cc(OC)c(OC)cc23)cc1OC |  | active: 10 µM
N=c1oc2c3c4c(cc2cc1C(=O)Nc1ccccc1)CCCN4CCC3 |  | active: 7.94 µM
COc1ccc(C(=O)NC(=S)Nc2cccc(S(=O)(=O)N3CCOCC3)c2)cc1 |  | active: 14.1 µM
COc1ccc(CNC(=O)CN(C(=O)CCC(=O)Nc2nccs2)c2ccc3c(c2)OCO3)cc1 |  | inconclusive [inhibitor, single point]
COc1cc(/C=N/Nc2nc(N3CCCC3)nc(N3CCCC3)n2)ccc1O |  | inconclusive [inhibitor, partial curve]
C=CCOc1nc(N2CCCC2)nc(N2CCCC2)n1 |  | inconclusive [inhibitor, partial curve]
COCc1ccc(CN2CCC(C(=O)Nc3cccc(-c4cccc(Cl)c4)c3)CC2)o1 |  | active: 10 µM
CCCOc1cccc(C(=O)Nc2ccc(CN3CCOCC3)cc2)c1 |  | inconclusive [inhibitor, single point]
CC(C)(C)c1ccc(C(=O)Cn2cnnc2C#N)cc1 | inactive: 9.01% | 
N=c1n(N)c2ccccc2n1CC(=O)c1ccc(Br)cc1 |  | active: 12.6 µM
Cc1c(N(CC(=O)O)S(=O)(=O)c2ccccc2)c(=O)n(-c2ccccc2)n1C | inactive: 28.7% | 
CCCCCCOc1ccc(N2C(=O)CC(N3CCN(CCN=CC4C(=O)CC(C)(C)CC4=O)CC3)C2=O)cc1 (stereo not given) |  | inconclusive [inhibitor, single point]
CCCc1c(C(=O)Nc2ccc(F)cc2F)cnn1-c1ccccc1 | inactive: -16.2% | 
Cc1ccc(C)c(OCCC(=O)OCC(=O)N2CCN(S(=O)(=O)c3ccc(Cl)cc3)CC2)c1 |  | inconclusive [inhibitor, partial curve]
O=C(Nc1ccc(Cl)cc1)c1nc[nH]c1C(=O)NCc1ccccc1 |  | inconclusive [inhibitor, single point]
O=C(CCNS(=O)(=O)c1ccccc1Cl)N1CCN(c2ccccn2)CC1 |  | inconclusive [inhibitor, single point]
CN(C)S(=O)(=O)c1cccc(NC(=O)NCCCl)c1 | inactive: 4.08% | 
COc1cccc(OCc2cc(C(=O)NCc3ccccn3)no2)c1 | inactive: 1.61% | 

Compound | activity change, negative = inhibition | Potency
O=C(NCc1csc(-c2cccs2)n1)Nc1ccc(C(F)(F)F)cc1 | inactive: 7.26% | 
CC1CC(C)(C)NC(=S)N1CCC(=O)NCc1ccc(Cl)cc1 (stereo not given) |  | inconclusive [inhibitor, single point]
CC(c1ccc(F)cc1)n1cc(C(=O)NCCN(C)C)nn1 (stereo not given) | inactive: -3.97% | 
CCOc1cccc(CNCCO)c1OCc1ccc(Cl)cc1 |  | inconclusive [inhibitor, single point]
S=C(/N=c1/sccn1Cc1ccccc1)NC1CC1 |  | inconclusive [inhibitor, single point]
CCOC(=O)c1c(-c2ccc(OC)c(OC)c2)csc1NC(=O)C1CCCO1 (stereo not given) |  | inconclusive [inhibitor, single point]
CN(C)/C=N/c1nc2ccc3c(c2s1)CCCC3 | inactive: -17.5% | 
O=C(CSc1nnc(-c2ccccc2O)o1)N1CCCCC1 | inactive: 13.1% | 
O=[N+]([O-])c1cnccc1Nc1ccc(Cl)cc1 | inactive: 3.32% | 
COc1ccc(C(C(=O)NC2CCCCC2)N(C(=O)CCl)c2ccccc2Cl)cc1 (stereo not given) |  | active: 2.82 µM
Cc1cccc(-c2oc3ccccc3c2C#CCCCCO)c1 |  | inconclusive [inhibitor, partial curve]
Fc1ccc(OCc2nc(-c3ccc(Br)o3)no2)c(F)c1 |  | inconclusive [inhibitor, single point]
S=c1nc(Cc2ccccc2)[nH]c2ccccc12 | inactive: 0.69% | 
COc1cc(C2Nc3c(F)cccc3C3C=CCC32)cc(Br)c1OC (stereo not given) | inactive: 0.991% | 
CC(C)N1CCC(NC(=O)Nc2ccc3c(c2)OCO3)CC1 | inactive: -14.9% | 
COc1cccc(O)c1CN1CCC(C(=O)Nc2ccc(Oc3cccnc3)cc2)CC1 |  | inconclusive [inhibitor, single point]
COc1ccc(Nc2nc(Nc3ccc(OC)cc3)nc(-n3[nH]c(=O)c(C)c3C)n2)cc1 |  | active: 10 µM
O=C(/C=C/c1ccccc1)CC(O)(c1ccccc1)C(F)(F)C(F)F (stereo not given) |  | inconclusive [inhibitor, single point]
Cc1cc(C)c(NC(=O)CNC(=O)COC(=O)C2=COCCO2)c(C)c1 | inconclusive: -30.2% [inhibitor] | 
CC(C)c1ccc(C2(C)NC(=O)N(CC(=O)N3CCN(C(=O)c4cccs4)CC3)C2=O)cc1 (stereo not given) |  | inconclusive [inhibitor, single point]
COc1ccc(CN(C)C(=O)c2cnc(OC)cc2C(F)(F)F)c(OC)c1 | inactive: -19.6% | 
COc1ccc(C(=O)Nc2ccc(C)cn2)c(OC)c1 |  | active: 10 µM
CCOC(=O)c1ccc(NC2c3ccccc3C(=O)N2c2ccccn2)cc1 (stereo not given) | inactive: 7.97% | 
O=C(CS(=O)(=O)c1c[nH]c2ccccc12)Nc1ccc2c(c1)OCCO2 | inactive: -1.41% | 
CCCCN(C)C1=CC2=CC(=C(C#N)C#N)CCC2CC1 (stereo not given) |  | inconclusive [inhibitor, partial curve]
